Results published in publication PMC12136788.
Some of the results follow.

T1: UNK ZnF1-3 (human, UniProt Q9C0B0 31-174)
T1 sequence: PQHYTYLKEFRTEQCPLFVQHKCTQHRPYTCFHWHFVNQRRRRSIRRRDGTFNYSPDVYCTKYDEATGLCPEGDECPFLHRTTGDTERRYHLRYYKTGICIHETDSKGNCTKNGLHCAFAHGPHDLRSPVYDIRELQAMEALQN

B1: 156510679_156513964_2510_CDS_ENSG00000183856_ENST00000361170|human|control|control (ssRNA)
RNA: GGGAGUUCUACAGUCCGACGAUCCACACUGAGAGGAGGGUGGGGUGCAUGCACUAAUAUCCUGUAGUCAUCUUGGGCUUUCCUGGCUCGGAAAAAUGCCUGGAUCUUCACAAUGGAGUUAACAUUCUUCUGGAAGUAGUGCAGCAACAGAGGAUUGAGCAUCA
B2: chr18:25532265:25532266:-_ENSG00000170558_ENST00000399380|hu_mus|FALSE|FALSE (ssRNA)
RNA: GGGAGUUCUACAGUCCGACGAUCGGAGUUGAGGGAGCUCAAGGAGCCAGCCGUGGAGCCGCUGCCCUCGUAGUCAAAGACUAAGAGGGAGUCAUACGGUGGCGCCGUGGGGUCGUUGUCAGCAGCUUUAAGGCCCUCAUUAAUCAACAGAGGAUUGAGCAUCA
B3: chr7:148083511:148083512:+_ENSMUSG00000025487_ENSMUST00000026560|mus_hu|motif|central (ssRNA)
RNA: GGGAGUUCUACAGUCCGACGAUCAAAUCCAACACUCGGGGCUGCACCCAGGUCAUGUGGACUCGUUUGUCCACCUCGUCGGUACUGCCUUUCACCAGCCCCACCGAAAGGGCCUUCAUCACCAGAAGCUCCACCUCAUUCACUCAACAGAGGAUUGAGCAUCA
B4: chr2:47387936:47387937:-_ENSG00000143933_ENST00000272298|hu_hu|FALSE|FALSE (ssRNA)
RNA: GGGAGUUCUACAGUCCGACGAUCUACAAGAAAUUUAACACAUUCUGUACAAGGUCUUCACUUUGCUGUCAUCAUUUGUACAAACUCUUCAUAGUUUACUUGACCAUCACCAUCAAUAUCUGCUUCCCUGAUCAUUUCAUCAACCAACAGAGGAUUGAGCAUCA
B5: 53569886_53570006_2966_CDS_ENSG00000023287_ENST00000025008|human|control|control (ssRNA)
RNA: GGGAGUUCUACAGUCCGACGAUCUGAGAAGUCACACUGUUCUUUUUGUACAAAUGUUCUAAAGUGGCAAAGGUCUUCCUUAAUGGUUUGUAUACUGAAGUGAGAGUCUUGGGCAACAACUCUACAUCUUUCCAACUGGACAUUCAACAGAGGAUUGAGCAUCA
B6: chr5:4083222:4083223:-_ENSMUSG00000001467_ENSMUST00000001507|perfect_dup|FALSE|FALSE (ssRNA)
RNA: GGGAGUUCUACAGUCCGACGAUCGGUGUGAAUCAUAGUUGUAUAAUUCACAGUGGGAAAGUAUCCAUCAAUGAGAUCAAAUUCAUAUAAACGAAGCAUAGUGGACCAAAUUGUCUUAAUUUGAACAUAGGCAAAAUUUUCCCCCAACAGAGGAUUGAGCAUCA
B7: chr18:33688888:33688889:-_ENSG00000141424_ENST00000269187|hu_mus|FALSE|FALSE (ssRNA)
RNA: GGGAGUUCUACAGUCCGACGAUCAAGUGACACAUUGCUUGGAUUAACAUAUUUACAUUUCUCUAUCAUACAGAUGUACAAGCAGAUGAAGUGUAUCAGAGUGUUCACUUGUUUCACAGGAACAUAACAAUUUGACAGAUGUCCCAACAGAGGAUUGAGCAUCA
B8: chr4:73765705:73765706:+_ENSMUSG00000049122_ENSMUST00000084474|mus_mus|FALSE|FALSE (ssRNA)
RNA: GGGAGUUCUACAGUCCGACGAUCGUACCUUGUGAGCUCUUCUUUAAUCUUCAAGGGUUCAUGUGGGUAGAAUUUCACUCUAAAGCACAUGGUGUAUGGUGGAUGAGAUUUCAUUUGCUUGAAGAUGGACUUGUUAGGCUCAAGCAACAGAGGAUUGAGCAUCA
B9: chr11:77336104:77336105:-_ENSG00000074201_ENST00000525064|hu_mus|hu_hu_hu_mus_False|78_108 (ssRNA)
RNA: GGGAGUUCUACAGUCCGACGAUCCUCGCACAUUGCAGUGAACAUCGCCUCCAAUGCUGAUUUAUCACUGGGCACAAAUCGAAAUUCAGAAAUGGGUUCAACAUCAUCAUUGUCUUCCUCAUCUUCAUCAGAGAGAGGUUCUUUCAACAGAGGAUUGAGCAUCA
B10: 39935774_39937205_266_3pUTR_ENSG00000183337_ENST00000397354|human|control|control (ssRNA)
RNA: GGGAGUUCUACAGUCCGACGAUCCAAGGAUUUUCCUGUCUUCGCUCGCCCCACACAUGCGGACCCUCUCGCUGUUCAUCCAGCUGUGAACGUUCCCAUACAGGGGGGUUGCUGAGAGCAUGUCGUCUUCUGGGAUGGCAGCUUCAACAGAGGAUUGAGCAUCA
B11: chr2:217001844:217001845:+_ENSG00000079246_ENST00000392132|hu_hu|hu_hu_hu_mus_False|38_108 (ssRNA)
RNA: GGGAGUUCUACAGUCCGACGAUCACCGACUUGAGGAUUAGAUCUUUUGUCAUAAGCAUAUCGGACGAUGGCGACCAUGUUUAACUCAUCCAAAGCAUGAAUCAGGGAGGAAAGGGCAACAGCUGCCGCCUCAUCAUCCUUUGCCAACAGAGGAUUGAGCAUCA
B12: 18507128_18507248_137_5pUTR_ENSG00000243156_ENST00000441493|human|control|control (ssRNA)
RNA: GGGAGUUCUACAGUCCGACGAUCGUGCCGCCGUGGCUGCUCGCACAACCCCUGCAGCUGCGAUCCCGCCCAGUUAGCCUCGGGGGCUGCACAGCCCAGCCCCCUCGCCCAGGGCCCAGGGGUUCUCAGGCCGCGCGGCGAGGACAACAGAGGAUUGAGCAUCA
B13: chrX:140365796:140365797:-_ENSMUSG00000031285_ENSMUST00000033642|mus_mus|mus_mus_mus_hu_False|18_58 (ssRNA)
RNA: GGGAGUUCUACAGUCCGACGAUCCUUCUCAUUACUCAGUGCCUGCAAGGUUCUGGUUCGGUAGAAGCUACAGUGGGCACUAUGAGUGGGGCUAGGCAACCCAUUCAUCCGGGAGCCUCUCAUAUUUCUGGAUGUCUUAUCUCUCAACAGAGGAUUGAGCAUCA
B14: chr7:19736620:19736621:-_ENSG00000105849_ENST00000222567|hu_hu|motif|central (ssRNA)
RNA: GGGAGUUCUACAGUCCGACGAUCCAUUGUCUAGCACAUCUACUUGUAGACAAUUGUGAACAUCUGCCACUCUGCCAAUUCGGUAUCCCAUCAUUGUAAGUUCAGAUCAACAUAUACCACUAGCAGAAUUUAUUCAUUACCAAACAACAGAGGAUUGAGCAUCA
B15: chr1:63223742:63223743:+_ENSMUSG00000025967_ENSMUST00000135877|mus_hu|FALSE|FALSE (ssRNA)
RNA: GGGAGUUCUACAGUCCGACGAUCUCUCCGAAACCCAUGGUGUCGGCUGUAUCCGAGAGCUGGGGAGCAGCAGAAAGAGAGCGCGCAAAUUGUGGGCGCCCCACGCUCCACGGCUCCCGAAGAUGACGGGAACCAGCCCUAGAACAACAGAGGAUUGAGCAUCA
B16: 46067823_46067943_205_3pUTR_ENSG00000130638_ENST00000252934|human|control|control (ssRNA)
RNA: GGGAGUUCUACAGUCCGACGAUCCUUGCCGCUCACAGCUGGGUCGAGCCUGACGAGGAGGAGGAAGGCGAGGAGGACGAAGGGGGAGGAUGACGAGGAGGGAGGAGUAGGAUGGCGAGGAGGAAGGGGGAGGCCUCGCCCUACCAACAGAGGAUUGAGCAUCA
B17: chr17:64801638:64801639:+_ENSG00000154229_ENST00000413366|hu_mus|hu_hu_hu_mus_False|8_98 (ssRNA)
RNA: GGGAGUUCUACAGUCCGACGAUCUAUAUAUAUAUAUAUAUACACACACAUAUAUAGUAAAACCCUAGUUAAACGUGUAAAGUAGCCAUUCAUUUUUAAAAUUACAUCUACAUUAAAAAAUUAAUAUAUCUGAUACAGUGCCAGCAACAGAGGAUUGAGCAUCA
B18: 54708344_54714423_936_CDS_ENSG00000047249_ENST00000359530|human|control|control (ssRNA)
RNA: GGGAGUUCUACAGUCCGACGAUCAAUCAUUUGAUACUGGAGCUGAAAGCCACACUUGUUACUCAACACUCCCAUUAUGCAAUUUACCCCAUCUGCUUCCACCCAAGCAAAGCGGUACUCAUUGACCCGGAGCAUCAGCUGCAACAACAGAGGAUUGAGCAUCA
B19: chr15:38448799:38448800:-_ENSMUSG00000037458_ENSMUST00000152833|mus_mus|FALSE|FALSE (ssRNA)
RNA: GGGAGUUCUACAGUCCGACGAUCAGCAGAAAUACCCAAGGCGGCCUGGGCCAUAGGCUGCGGGGACGACGUGGGGGAAACGCGCGGCACCGACACCAGCUGAGCAGCAGUGGCGGCGGCAGCCGAACUGGAGAAAUGGAGCGGCAACAGAGGAUUGAGCAUCA
B20: chr1:46159212:46159213:+_ENSG00000159596_ENST00000372025|hu_mus|hu_hu_hu_mus_True|28_38 (ssRNA)
RNA: GGGAGUUCUACAGUCCGACGAUCUCUGAUCCCUCCCAAGAAAGCUAGGAAACCGGCUCCAUAAGCCAUCUGAGUGAAAGCUAGGACGGGGAUAUAAGUUUUUGUCAUCAGCAUGACAAGUGGGGGAGCAGUAAAGGGGAUUAACAACAGAGGAUUGAGCAUCA
B21: chr3:145257603:145257604:+_ENSMUSG00000074182_ENSMUST00000098534|mus_mus|motif|central (ssRNA)
RNA: GGGAGUUCUACAGUCCGACGAUCAUCGAUGUAAGGCUUUAGAAUUUCAUUAAUAGUUUUAUCAUCUGGUACUCUUUUUUCGGUGUACUCUGCUUGACUCUGAGGAAACUGGAGCUUGACAUGCCAACAAAACUGCUGCUUCCUCAACAGAGGAUUGAGCAUCA
B22: chr4:115894766:115894767:+_ENSMUSG00000028698_ENSMUST00000030464|mus_hu|mus_mus_mus_hu_True|28_78 (ssRNA)
RNA: GGGAGUUCUACAGUCCGACGAUCUUCCACACGGAAAUGUACUUCGGGUUUUCCAACGCCAGUACAAAGUCCGGCCAAACUACCCGAACAGGGUCCUCCCCCUCUCUUCUCUCCUCCACAACAAAAUGCCCCCGAACUUUCAAGCAACAGAGGAUUGAGCAUCA

Molecular target: T1, UNK ZnF1-3
Experiment: nsRBNS (natural sequence RNA bind-n-seq); RBNS binding buffer (assumed for nsRBNS): 25 mM Tris pH 7.5, 150 mM KCl, 3 mM MgCl2, 0.01% Triton X-100, 500 ug/ml BSA, 20 U/ml SUPERase-In, 4 C; UNK is unkempt and MSI1 is Musashi-1; names of the RNAs are library labels; protein concentration not given here; high values mean tight binding

Row | Binder | binding signal
1 | B1 | 1.2 enrichment R
2 | B2 | 1.27 enrichment R
3 | B3 | 0.559 enrichment R
4 | B4 | 0.957 enrichment R
5 | B5 | 1.05 enrichment R
6 | B6 | 0.915 enrichment R
7 | B7 | 0.705 enrichment R
8 | B8 | 0.763 enrichment R
9 | B9 | 0.839 enrichment R
10 | B10 | 0.552 enrichment R
11 | B11 | 1.49 enrichment R
12 | B12 | 0.829 enrichment R
13 | B13 | 0.628 enrichment R
14 | B14 | 1.22 enrichment R
15 | B15 | 0.804 enrichment R
16 | B16 | 1.98 enrichment R
17 | B17 | 2.7 enrichment R
18 | B18 | 0.936 enrichment R
19 | B19 | 1.78 enrichment R
20 | B20 | 1.2 enrichment R
21 | B21 | 0.776 enrichment R
22 | B22 | 1.04 enrichment R
